In all, about 33,000 sequences were measured (“E-score (-0.5 to 0.5)”: median about -0.016, highest 2% from about 0.31 on). The list shows a part of the results.
What follows are sequences tested against Cst6 (UniProt P40535) (assay: PBM E-score (8-mer binding enrichment) (E-score (-0.5 to 0.5)); higher = stronger / more preferred TF binding; most listed sequences are background and not binding sites). Details: protein concentration: 200 nM; construct: GST-DNA-binding domain.
Summary of the method: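 Yeast transcription factors, full-length or as DNA-binding domains, were expressed with a GST tag using PURExpress in vitro transcription/translation. At about 100-200 nM they were applied to universal all-10-mer Agilent arrays, double-stranded by primer extension on fresh or once-stripped slides. Fluorescent anti-GST detected bound protein, and masliner normalised the scans. E-scores for ungapped eight-base words, pooled with reverse complements, came from the Universal PBM Analysis Suite.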

| Sequence | PBM E-score |
| --- | --- |
| CGGTCCAG | -0.242 |
| ACGCTAGG | -0.196 |
| CTTTCGTA | 0.203 |
| GACGTACC | 0.349 |
| AGCTCTTG | -0.129 |
| ATTAAAGG | 0.0957 |
| AGTGCTGA | -0.124 |
| ACGGCGGC | 0.156 |
| CCCTTACC | -0.0999 |
| ACGAACCG | 0.0117 |
| GAAACTTC | 0.0326 |
| ATCCGTCC | -0.152 |
| CGGGTACC | -0.297 |
| ATTTCCAC | 0.22 |
| CACGTCAA | 0.366 |
| ATATCCAT | 0.146 |
| AATTGGTC | 0.112 |
| AGATCTAT | -0.00275 |
| AGCGTGAC | 0.259 |
| CAGGAACC | -0.334 |
| CTCTTCCC | -0.178 |
| AGGAGGAA | -0.108 |
| ACCCAAGT | -0.173 |
| ATACTGGG | -0.216 |
| AACTAGTC | -0.123 |

| Sequence | PBM E-score |
| --- | --- |
| AACGATCG | -0.0398 |
| AAGCTTGG | -0.2 |
| ACGCCATG | 0.219 |
| CGCTGGTA | -0.141 |
| AACCACCT | -0.0544 |
| AGGTGAGG | -0.0942 |
| CCCGGCAA | -0.171 |
| GCCCTGCC | -0.237 |
| AGAAGTCC | -0.185 |
| CTGAACGC | -0.215 |
| CAATACGC | -0.00637 |
| CCGGCCGG | -0.0312 |
| GGTGACAA | 0.27 |
| GCATCACC | 0.231 |
| TTCCTAAA | 0.00834 |
| ACTCTAAA | 0.161 |
| CTGAAGTC | -0.0806 |
| CATAATCG | 0.2 |
| ATTAAGTC | 0.222 |
| CTACCGCA | -0.0718 |
| AAGAGGTG | 0.133 |
| AGGTATTA | 0.104 |
| ACTACTAG | 0.0115 |
| GCTTGCCA | 0.0626 |
| AGCGCGCT | -0.107 |

| Sequence | PBM E-score |
| --- | --- |
| TCGGCGAA | -0.12 |
| TCCTAAGA | -0.059 |
| GTTGTAAA | -0.0289 |
| ATATGATG | 0.333 |
| AGGGCAGC | -0.211 |
| AAACATGG | -0.0699 |
| ATGCACAA | -0.0724 |
| ACCAGCGC | -0.076 |
| GCTTGATA | 0.162 |
| GAATAAAA | 0.216 |
| CGTCGGTA | 0.00151 |
| AGTCACCC | 0.117 |
| ATATCGGG | -0.0486 |
| AATGAAGT | 0.254 |
| TCAAATGA | 0.214 |
| GCATACAA | 0.178 |
| AACGGGAA | 0.107 |
| ACGTGTAG | -0.0679 |
| ACCACGTG | -0.00605 |
| GCATCCCC | -0.246 |
| GGACTCTA | -0.217 |
| ACGGCGAG | 0.18 |
| ATGAGGAC | -0.135 |
| GCCATCGC | -0.244 |
| AGATAATG | 0.158 |

| Sequence | PBM E-score |
| --- | --- |
| CGTTTGCC | 0.0166 |
| ATTATTAA | 0.255 |
| CACGCCGG | -0.0575 |
| TGAAAAAA | 0.235 |
| ACAATCGA | 0.0415 |
| ACGCGCGG | 0.119 |
| CTCATAGA | 0.0631 |
| TATACTGA | 0.267 |
| ACAAAGTG | -0.1 |
| TGATTCAA | 0.163 |
| CACATGGA | -0.00127 |
| ATGAATAC | 0.195 |
| TCGCCCAA | -0.157 |
| CAACCGGG | -0.107 |
| TGTGATAA | 0.264 |
| AAGTGCAA | -0.0748 |
| CGTGACCC | -0.0116 |
| AGTGGCCG | -0.187 |
| CCCATCGC | -0.184 |
| GTTTCTTA | 0.13 |
| GAATTACA | 0.0806 |
| GCGGGAAA | 0.068 |
| ATGTCGGA | -0.155 |
| GGCTGAAA | 0.0421 |
| CTCTCGCC | -0.249 |

| Sequence | PBM E-score |
| --- | --- |
| AGATCGAA | 0.164 |
| TCTAGAGA | -0.322 |
| CGTATTAG | 0.239 |
| AAAAGGTT | 0.00471 |
| ATTCATCC | 0.0489 |
| AGATAGTC | -0.147 |
| CCCTGAGG | -0.313 |
| CCATAATA | 0.114 |
| CAGTGATC | 0.0796 |
| CACACGTA | 0.0952 |
| CCGTTGCG | 0.0674 |
| CGGAGGGA | -0.377 |
| GAGAAACA | 0.0998 |
| GAGTGTGA | 0.146 |
| CGGCCAAC | -0.16 |
| ATCCCTAA | -0.28 |
| GCAGCGGC | -0.00681 |
| AAAGCCGC | 0.183 |
| ACCGTCCT | -0.254 |
| AAATTGGA | 0.113 |
| ACCAGGTA | -0.29 |
| AACGATTG | 0.0587 |
| AGGTAGTG | 0.0524 |
| CCTTGGAG | -0.0349 |
| ACGGTTAT | -0.0415 |

| Sequence | PBM E-score |
| --- | --- |
| CAATGAGA | -0.0451 |
| CGACTCGA | -0.226 |
| AAATGAAA | 0.322 |
| AGGCTTAA | -0.0613 |
| CGTCGGAA | 0.0694 |
| CGCAAAGC | -0.0939 |
| ACGAGGGA | -0.154 |
| CTCCGAAA | -0.0868 |
| GAGATGGA | -0.194 |
| CAAGAACA | 0.053 |
| ATCTCCGC | 0.0238 |
| GGTATGTA | 0.0278 |
| CCACTTGC | -0.181 |
| ACCCATCT | -0.0183 |
| CCGCGTTA | 0.134 |
| ATCCAGTG | 0.103 |
| GCGCTCGA | -0.0995 |
| TAATTCTA | 0.157 |
| CTCCTGGA | -0.315 |
| GCCGGACA | 0.0223 |
| ACGTCGGG | -0.168 |
| GATTAGGA | 0.0224 |
| CTCAGGAA | -0.163 |
| AGTTTAAG | -0.0158 |
| CTGAGACA | -0.202 |

| Sequence | PBM E-score |
| --- | --- |
| TTAAGCAA | 0.0737 |
| AGGAACCT | -0.131 |
| ATGTTATA | 0.125 |
| ATAGGCAA | 0.0135 |
| ACTCGCTC | -0.159 |
| GACTGTGA | 0.0621 |
| AGCCCATA | -0.149 |
| CTAGATGC | -0.0973 |
| AGGATTCC | -0.189 |
| GGCCGCCA | -0.246 |
| CCATCTCC | -0.0491 |
| AGCTCTTA | -0.022 |
| TCGTCGCA | 0.0405 |
| CGGAAAGA | -0.0305 |
| GAGCTGCC | -0.222 |
| CCAAACTA | 0.0704 |
| AACGAACT | -0.00871 |
| GACACTGC | -0.0605 |
| CCATAACC | -0.191 |
| CACAATCC | 0.0228 |
| AAGGAGCA | -0.141 |
| CTCGACAG | -0.272 |
| ATTTTTAG | -0.00122 |
| ACTCACGA | -0.053 |
| CTGGTGTC | -0.119 |

| Sequence | PBM E-score |
| --- | --- |
| AATCTCAT | 0.046 |
| CTAGGGGA | -0.439 |
| CAGTCACA | 0.0928 |
| CCGTCTGC | -0.0111 |
| AGCCAAAT | -0.0457 |
| AAATGTCG | 0.113 |
| TATTACAA | 0.193 |
| ACAACGAG | 0.0817 |
| ATGCGGTA | 0.0106 |
| TAGAACTA | 0.0599 |
| CGGCAATA | 0.189 |
| AGCCAGGC | -0.062 |
| CCTACGTA | 0.297 |
| AAATGGCG | 0.142 |
| CTGGATCA | -0.0505 |
| CGAATTCA | 0.109 |
| TGATCACA | 0.0749 |
| AGCAATGA | 0.182 |
| GGAGTTCA | -0.103 |
| AGCAACGG | -0.0269 |
| ATGAGGCG | -0.0116 |
| ATCGGTTG | -0.118 |
| ACGATAGT | 0.235 |
| CTGGGGGC | -0.374 |
| AGCGCAGG | -0.213 |

| Sequence | PBM E-score |
| --- | --- |
| CGATCACG | 0.175 |
| CGGCCACG | -0.124 |
| CGCGAAGC | 0.0818 |
| ACAGTCTC | -0.183 |
| CGGACTAC | -0.121 |
| CAGCAGGC | -0.109 |
| ACTTAGAG | -0.0632 |
| GCACCTTA | -0.103 |
| CAGGATTC | 0.0383 |
| GGAATTGA | 0.0716 |
| ACTAATGA | 0.202 |
| TCCGCTCA | -0.185 |
| ATTGAAAC | 0.194 |
| GGGTTACA | 0.126 |
| ACGTATTA | 0.33 |
| CACTCGTA | -0.11 |
| ATCCTACC | -0.175 |
| CTCGCAGA | -0.138 |
| AGCCGGTG | -0.093 |
